Molecules are shown by their SMILES. Hit rate of the full screen: of about 52,000 compounds, about 4,300 (8.3%) were called active. Cut-off read from the data, not from the text of the source: active = survival mostly below about 52% (no sharp cut-off); inactive = mostly above about 56%. Some of the results follow.

The assay deals with DeltatarO mutant. Description: growth inhibition of S. aureus wild type versus tarO mutant, primary screen, teichoic acid synthesis inhibitors, RN4220, OD600 (AID 463173). Conditions: OD600, 18 h, hits give low values, screened at 18.75 µg/mL (by protocol).
`CCCNC(=O)CN1C(=O)COc2ccc(S(=O)(=O)N3CCCCCC3)cc21`: the survival was inactive: 80%.

Turning to `CC1CCN(S(=O)(=O)c2ccc3c(c2)N(C)C(=O)CC(=O)N3C)CC1`, the survival is inactive: 60%.

On to `CCc1ccc(CNC(=O)CN2C(=O)C3CCCCN3c3ccc(C(=O)N4CCCC4)cc32)cc1` (stereo unspecified), for which the survival was inactive: 75%.

With `CC(C)Oc1ccc(CNC(=O)C(C)n2ccc3cc(S(=O)(=O)N4CCCCCC4)ccc32)cc1` (stereo unspecified), the survival is inactive: 95%.

Turning to `O=C(Nc1ccccc1C(=O)N1CCCCC1)c1nsc2ccccc12`, the survival is inactive: 134%.

In the case of `CNC(=O)c1cnc2sc(N3CCC(C)CC3)nn2c1=O`, the survival is inactive: 78%.

Consider `CCCCOc1cccc(C2c3c(-c4cc(C)ccc4O)n[nH]c3C(=O)N2CCOC)c1` (stereo unspecified), for which the survival is active: 10%.

Consider `CCCCCOc1ccc(/C=C/C(=O)Nc2sc3c(c2C(=O)OCC)CCC3)cc1OC`, for which the survival is inactive: 66%.

`CCc1ccc(NC(=O)c2cc(=O)c3ccc(C)c(C)c3o2)cc1`: the survival was inactive: 91%.

In the case of `COc1ccc(NC(=O)CNC(=O)Cn2ccc3ccccc3c2=O)cc1OC`, the survival is inactive: 89%.

Turning to `COC(=O)CN1C(=O)CSc2ccc(S(=O)(=O)Nc3ccc(C)c(Cl)c3)cc21`, the survival was inactive: 70%.

With `O=C(Cc1ccc(-c2ccccc2)cc1)NCCS(=O)(=O)N1CCN(c2ccccc2F)CC1`, the survival was inactive: 85%.

As to `COc1cccc(NC(=O)C2CCCN(c3ncnc4onc(C)c34)C2)c1` (stereo unspecified), the survival was inactive: 87%.

For the molecule `CCc1nnc(NC(=O)C2CCCO2)s1` (stereo unspecified), the survival was inactive: 98%.

`COc1cccc(C(=O)Nc2ccc3nc(SCCOc4ccccc4)sc3c2)c1`: the survival was inactive: 75%.

With `CCOC(=O)c1[nH]c(C)c(CN(C(C)=O)c2ccc(OCC)cc2)c1C`, the survival was inactive: 83%.

For the molecule `O=C(CCNS(=O)(=O)c1ccc2c(c1)CCN2C(=O)C1CC1)Nc1ccc(OC(F)(F)F)cc1`, the survival is inactive: 91%.

On to `CCC(C)NC(=O)Cn1ccc2cc(S(=O)(=O)N3CCCCCC3)ccc21` (stereo unspecified), for which the survival is inactive: 118%.

For the molecule `CCc1ccc2oc(-c3cc(NC(=O)c4cccs4)ccc3Cl)nc2c1`, the survival was active: 19%.

As for `O=C(Nc1ccc(F)c(F)c1)c1cc(S(=O)(=O)NC2CCCC2)ccc1F`, the survival is inactive: 118%.

On to `Cc1cccc(N2CCN(CCCNc3ncnc4onc(-c5ccc(F)cc5)c34)CC2C)c1` (stereo unspecified), for which the survival was inactive: 79%.

For `Nc1nnc(CCCCn2c(-c3nonc3N)nc3ccccc32)s1`, the survival was inactive: 69%.

In the case of `CCn1cc(S(=O)(=O)c2ccccc2)c(=O)c2cc(F)c(F)cc21`, the survival was inactive: 92%.

`Cc1ccc(CN(C(=O)COc2ccc(F)cc2)C2CCS(=O)(=O)C2)o1` (stereo unspecified): the survival was inactive: 95%.

As for `O=C(NCC(c1cccnc1)N1CCc2ccccc21)c1ccc(Cl)cc1` (stereo unspecified), the survival is inactive: 52%.

For the molecule `CCc1ccc(CN2CCC(C(=O)N(C)CCc3ccc(OC)c(OC)c3)CC2)cc1`, the survival was inactive: 81%.

Take `CCOc1ccc(N(CC)C(=O)Cn2cnc3sc(C)c(S(=O)(=O)N4CCN(c5ncccn5)CC4)c3c2=O)cc1`: the survival is inactive: 61%.

Take `CC(C)CCNC(=O)c1ccc2nc(Cc3ccccc3)oc2c1`: the survival is inactive: 55%.

As to `Cc1cc(NS(=O)(=O)c2ccc(NC(=O)COc3cc(C)c(Br)cc3C(C)C)cc2)no1`, the survival was active: 13%.

As for `COc1ccc(-c2cc(C(F)(F)F)nc(SCC(=O)NC(C)c3ccccc3)n2)cc1` (stereo unspecified), the survival is inactive: 60%.

Consider `Cc1ccc(CCNC(=O)c2ccc3c(c2)N(Cc2cccc(F)c2)C(=O)c2ccccc2S3)cc1`, for which the survival is inactive: 94%.

Turning to `COc1cccc2cc(C(=O)Nc3ccc(C)cc3)c(=O)oc12`, the survival is inactive: 91%.

As to `CCOC(=O)c1ccc(NC(=O)C2=C(C)C(=O)OC23CCN(C(C)C)CC3)cc1`, the survival is inactive: 70%.

Take `Cc1ccc2c(=O)cc(C(=O)Nc3sc4c(c3C(=O)NCc3cccnc3)CCCC4)oc2c1`: the survival was inactive: 76%.

As to `Cc1nc(-c2ccc(S(=O)(=O)NCc3ccccc3Cl)cc2)co1`, the survival is inactive: 85%.

As for `CCCCN(CCCC)C(=O)c1c[nH]c2ccc(S(=O)(=O)Nc3cccc(Cl)c3C)cc2c1=O`, the survival is inactive: 101%.

Regarding `CCCN1C(C(=O)c2ccccc2)=C(OC(=O)COc2ccc(C)cc2)c2ccccc2S1(=O)=O`, the survival was active: 19%.

Consider `COC(=O)CN1C(C(=O)c2ccccc2)=C(OC(=O)c2ccccc2)c2ccccc2S1(=O)=O`, for which the survival is inactive: 49%.

`Cc1ccc(NC(=O)CCCn2nc(C)c3c(C)n(-c4ccccc4)nc3c2=O)c(Cl)c1`: the survival was inactive: 89%.

`Cc1ccc(NC(=O)C2CCCN(S(=O)(=O)c3cccs3)C2)c(C)c1` (stereo unspecified): the survival is inactive: 81%.

On to `O=C(Nc1c2c(nn1-c1ccc(Cl)cc1)CS(=O)(=O)C2)c1ccc(Br)cc1`, for which the survival was active: 52%.

For the molecule `COc1cccc(NC(=O)N(Cc2nc3ccccc3c(=O)[nH]2)C2CCCCC2)c1`, the survival was inactive: 83%.

For `CCCSCCCNC(=O)Cn1c(-c2cccs2)cc2ccccc21`, the survival is inactive: 77%.

On to `CCOC(=O)c1cc(NC(=O)c2ccc(F)cc2)c(=O)n2c1oc1ccc(Cl)cc12`, for which the survival was inactive: 127%.

As to `Cc1cc(O)c(CN2CCN(c3ccccc3)CC2)c2oc(=O)cc(C)c12`, the survival is inactive: 51%.

`Cn1c(=O)sc2cc(NS(=O)(=O)c3ccc(C(C)(C)C)cc3)ccc21`: the survival is inactive: 92%.

`Cc1ccc(S(=O)(=O)c2nc(-c3cccs3)oc2N2CCC(C)CC2)cc1`: the survival is active: 8%.

`CC(=O)N1CCc2c(sc3c2c(=O)n(-c2ccccc2C)c(=O)n3CC(=O)Nc2ccccc2)C1`: the survival was inactive: 69%.

Take `Cc1c(C(=O)Nc2c(F)cccc2F)sc2ncn(Cc3ccccc3F)c(=O)c12`: the survival was inactive: 76%.

As for `COc1ccc(C(=O)NCc2cn3ccc(C)cc3n2)cc1`, the survival was inactive: 96%.

As for `CN(C)C(=O)c1ccc(S(=O)(=O)NCc2ccc(Cl)cc2)s1`, the survival is inactive: 119%.

Take `CCCCN(CC)C(=O)CSc1nc2c(sc3ccccc32)c(=O)n1CCc1ccccc1`: the survival is inactive: 119%.

Regarding `CCOc1ccc2[nH]c(=O)c(CN(C(=O)Nc3ccccc3)C3CC3)cc2c1`, the survival was inactive: 92%.

Take `CCc1ccccc1NC(=O)Cn1c(=O)n(-c2ccc(C)cc2)c(=O)c2cc(OC)c(OC)cc21`: the survival is inactive: 91%.

On to `COC(=O)c1scc(-c2ccc(C)cc2)c1S(=O)(=O)N1CCN(c2cccc(Cl)c2)CC1`, for which the survival is inactive: 76%.

Consider `CCN(CCCNC(=O)Cn1ncc2c([nH]c3ccccc32)c1=O)c1cccc(C)c1`, for which the survival is inactive: 96%.

For the origin of these results see PubChem BioAssay AID463173 (ICCB-Longwood Screening Facility, Harvard Medical School, 2010).
